# Measurements as given in publication PMC6919601, “Identification of Plasmodium dipeptidyl aminopeptidase allosteric inhibitors by high throughput screening” (PLoS ONE, 2019).
# “And” between values parts separate entries of the source, which are not always exact repeats. Equal entries are not always repeated. Among all 110,000 compounds or so, about 230 (0.21%) showed an effect of 50% or more. Some of the results follow.
# Target: DPAP1 (Plasmodium falciparum, UniProt Q8IIJ9)
# Test: primary screen, percent inhibition; read by cleavage of a fluorogenic dipeptide substrate; higher = more effect of the substance
# Set-up: species or system P. falciparum D10 trophozoite lysates; single well
# 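Further: 30 min substrate incubation versus DMSO and 10 µM JCP410 controls.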
# DPAP1, sequence (Q8IIJ9 whole entry, looked up): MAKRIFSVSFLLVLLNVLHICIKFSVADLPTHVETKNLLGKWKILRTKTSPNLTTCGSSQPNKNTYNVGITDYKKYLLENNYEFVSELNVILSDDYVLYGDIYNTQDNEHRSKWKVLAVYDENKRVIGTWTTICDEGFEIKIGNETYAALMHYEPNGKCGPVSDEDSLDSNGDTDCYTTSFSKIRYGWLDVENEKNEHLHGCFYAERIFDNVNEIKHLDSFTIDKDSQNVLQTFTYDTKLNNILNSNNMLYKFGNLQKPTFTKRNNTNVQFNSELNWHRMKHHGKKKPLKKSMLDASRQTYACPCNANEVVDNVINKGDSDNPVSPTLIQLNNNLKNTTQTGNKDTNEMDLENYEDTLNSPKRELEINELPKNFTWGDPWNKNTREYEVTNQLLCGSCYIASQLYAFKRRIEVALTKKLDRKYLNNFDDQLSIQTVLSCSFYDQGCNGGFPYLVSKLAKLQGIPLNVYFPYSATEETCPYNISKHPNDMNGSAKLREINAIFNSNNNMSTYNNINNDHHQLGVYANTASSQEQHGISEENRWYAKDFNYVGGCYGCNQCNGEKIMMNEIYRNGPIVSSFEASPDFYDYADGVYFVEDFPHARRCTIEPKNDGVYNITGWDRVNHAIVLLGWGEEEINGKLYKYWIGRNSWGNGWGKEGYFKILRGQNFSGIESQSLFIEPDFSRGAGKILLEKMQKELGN
row,SMILES,% Inhibition @ 10 uM
1,CC(=O)Nc1ccc(S(=O)(=O)Nc2ccc(C)c(Br)c2)cc1,-13.3%
2,COc1ccc(-c2c(C(F)(F)F)oc3c(CN(C)C)c(O)ccc3c2=O)cc1,-3.12%
3,O=C(c1ccc(Br)cc1)c1cc2ccc(O)cc2oc1=O,5.32%
4,CCOC(=O)c1cnn(CCOC(=O)c2ccco2)c1NC(=O)c1ccco1,-6.52%
5,CCOc1ccc(C2CC(=O)N3CN(Cc4cccnc4)CSC3=C2C#N)cc1 (centres unmarked),56%
6,O=C1C(=Cc2cc([N+](=O)[O-])ccc2O)C(=O)c2ccccc21,2.6%
7,Cc1nnc(NC(=O)CSc2ccc(-c3cccs3)nn2)s1,4.84%
8,NC(=S)c1cc2cc([N+](=O)[O-])ccc2oc1=O,0.132%
9,O=C(Cc1c(Cl)cccc1Cl)N1CCN(c2ccccc2)CC1,1.39%
10,CCc1cc2c(cc3c(=O)n(CC(=O)NCCN4CCOCC4)ncn32)s1,1.68%
11,Oc1ccc(C2=NNc3nc4ccccc4nc3O2)cc1,-7.17%
12,Cn1c(=O)c2nc(-c3ccccc3)c(=O)n(C)c2n(C)c1=O,-7.32%
13,Cc1ncc(CO)c2c1Oc1nc(-c3cccc(Cl)c3)nc(SCC(=O)N3CCCCC3)c1C2,5.85%
14,COc1ccc(S(=O)(=O)N2CCC(C(=O)NC3CC3)CC2)cc1,4.74%
15,Cc1oc(-c2ccc(C(=O)NCCN3CCCC3)cc2)nc1CSc1ccc(Cl)cc1,0.0882%
16,O=C(O)C1C2C=CC3(CN(CCCN4CCOCC4)C(=O)C13)O2 (centres unmarked),0.708%
17,COc1ccc(C(=O)NCCN2CCCC2)cc1,3.53%
18,COc1cccc([C@@H]2[C@H]3CCCC[C@]3(O)CCN2C(C)=O)c1,2.7%
19,CCCCOc1ccc(C2C(C(=O)OCCOC)=C(C)N=C3SCCC(=O)N32)cc1OC (centres unmarked),-4.85%
20,CC1CC(=O)C2=C(C1)OC(N)=C(C#N)C2c1ccc(Br)o1 (centres unmarked),-2.56%
21,Cn1ncc(Cl)c1C(=O)N1CCCc2ccccc21,2.01%
22,CCOC(=O)c1c(C)[nH]c(C)c1S(=O)(=O)NCC(=O)NCc1ccc(F)cc1,-5.31%
23,Cc1nn2c(O)c3c(nc2c1-c1cccc2ccccc12)CCCC3,2.65%
24,O=C(Cn1ccc2cc(S(=O)(=O)N3CCCCC3)ccc21)NCc1cccnc1,-4.27%
25,Cc1cccc(N2C(N)=C(C#N)C(c3cccnc3)C3=C2CCCC3=O)c1 (centres unmarked),4.01%
26,CC(NC(=O)CN(c1ccccc1Cl)S(=O)(=O)c1ccccc1)c1ccccc1 (centres unmarked),-4.62%

row,SMILES,% Inhibition @ 10 uM
1,COc1ccc(C(=O)Nc2ccc(S(=O)(=O)Nc3nc(C)cc(C)n3)cc2)cc1Br,-5.92%
2,CCC1CCc2c(sc(NC(=O)c3ccoc3C)c2C(N)=O)C1 (centres unmarked),6.81%
3,O=C(CCN1CCCCC1)c1ccc(Cl)cc1,2.13%
4,O=C(CCCC1CCCCC1)N[C@@H](CCc1ccccc1)C(=O)c1nc2ccccc2o1,-6.98%
5,CCN1CCN(Cc2ccc(Cl)c(Cl)c2)CC1,1.48%
6,Clc1cccc(Nc2nc3c(s2)CCCC3)c1,19.1%
7,CC1(C)N=C(c2ccccc2)C(=O)N1,3.5%
8,CC(C)(C)NS(=O)(=O)c1ccc(NC(=O)COc2ccc(Br)cc2)cc1,-6.08%
9,CC(C)c1ccc(-n2nnc(-c3nc(-c4ccncc4)no3)c2N)cc1,-1.87%
10,CCCOCC1O[C@@H]2OC(C)(C)O[C@@H]2[C@H]2OC(C)(C)O[C@@H]12 (some centres unmarked),-2.97%
11,Cn1c(C(=O)NCc2ccccc2)cc(=O)n(C)c1=O,-0.403%
12,COCCCn1c(=O)c2sccc2n2c(CCCC(=O)NCc3ccc4c(c3)OCO4)nnc12,-1.87%
13,Cn1c(=O)c2c(nc(Cl)n2Cc2cccc(C(F)(F)F)c2)n(C)c1=O,7.93%
14,C(=C\c1ccc2c(c1)OCO2)/c1ccncc1,2.4% and 4.04%
15,CC(C)(CO)NCc1ccccc1OCc1ccc(Cl)cc1,-2.82%
16,Cc1ccc(S(=O)(=O)NCCOc2ccccc2Cl)cc1[N+](=O)[O-],-6.82%
17,N#CCNC(=O)C(CC(=O)N1CCOCC1)CS(=O)(=O)Cc1ccccc1 (centres unmarked),-1.83%
18,COc1ccc(-n2ncc(C(=O)N3CCCCC3)c2C2CCNCC2)cc1,-4.61%
19,Cn1cc(CCCC(=O)NCCC2=CCCCC2)c2ccccc21,-1.34%
20,Cc1cc(C)c(C)c(OCCCCCN2CCCC2)c1,-3.94%
21,CC(C)Oc1ccc(C(=O)NC2CCCCC2)cc1,5.03%
22,Cc1nc2c(-c3ccccc3)c(C)nn2c(C)c1CC(=O)NC1CCCC1,0.953%
23,O=S(=O)(c1ccccc1)n1ccc2c(Cl)ccnc21,-2.8%
24,CN1CCN(C(=O)c2ccc(S(=O)(=O)N3CCOCC3)cc2)CC1,-1.85%
25,Cc1cc(OC(C)C(=O)Nc2ccc(S(=O)(=O)Nc3nccs3)cc2)cc(C)c1Cl (centres unmarked),-1.96%
26,CC(=O)c1c(O)cc(C)o/c1=N\c1cccc(C)c1,-6.35%

row,SMILES,% Inhibition @ 10 uM
1,CC(C)(CO)NC(=O)C12CC3CC(CC(C3)C1)C2,-2.48%
2,Cc1ccccc1NS(=O)(=O)c1ccc(Sc2ccc(S(=O)(=O)Nc3ccccc3C)cc2)cc1,4.08%
3,CN(CC(=O)N1CCN(Cc2ccccc2)CC1)S(=O)(=O)c1ccc2[nH]c3c(c2c1)CCCC3,-0.878%
4,CC1CC(=O)C2=C(C1)OC(N)=C(C#N)C2c1c[nH]c2ccccc12 (centres unmarked),-5.61%
5,Cc1ccc(-n2ncc3c(N(C)Cc4ccccc4)ncnc32)c(C)c1,0.593%
6,Cc1ccc(-n2ncc3c2ncn2nc(COc4ccccc4C)nc32)cc1C,2.19%
7,CC(NS(=O)(=O)c1ccc(CCC(=O)NC2CCCCC2)cc1)c1ccccc1 (centres unmarked),0.161%
8,CCOc1cc(C2C(C(=O)OC)=CN(C3CC3)C=C2C(=O)OC)ccc1O,1.96%
9,CC(C)OCCCNC(=O)c1ccc2c(c1)sc1nc(-c3ccccc3)cn12,10%
10,Cc1ccccc1N1CCN(C(=O)c2ccccc2N)CC1,1.94%
11,COc1cccc(C2=NS(=O)(=O)N(C)C(C(=O)NC3CCCC3)=C2)c1,2.32%
12,Cc1cccc(C)c1N1C(=O)C2C3C=CC(C3)C2(C)C1=O (centres unmarked),1.34%
13,CS(=O)(=O)N1CCC(C(=O)N2CCN(Cc3ccc4c(c3)OCO4)CC2)CC1,5.66%
14,CC(C)(CO)NC12CC3CC(CC(C3)C1)C2,-5.01%
15,CCOCCCNc1c(-c2ccccc2)nc2ccc(Br)cn12,-5.77%
16,COc1ccc(N2CCN(Cc3ccc(-c4ccccc4)cc3)CC2)cc1,-6.36%
17,CCCO/C(O)=C1\C(C)=NC2=C(C(=O)CC(C)(C)C2)C1c1cccc(Cl)c1 (centres unmarked),-5.44%
18,Cc1ccc(NC(=O)COc2ccccc2)c(C)c1,3%
19,Cc1sc(NC(=O)c2cc(Cl)ccc2Cl)c(C#N)c1C,9.68%
20,O=C(O)c1cc2ccc3cccnc3c2[nH]1,1.9%
21,O=C(O)CCNC(=O)/C(=C\c1ccccc1)NC(=O)c1ccccc1,-5.59%
22,Cc1ccc(OCC(=O)Nc2ccccc2O)cc1,-4.63%
23,Cc1cc(C)c2nc3nc(C)cc(C)c3c(N)c2c1,6.74%
24,CCCCCCSc1nc2c(c(=O)[nH]c(=O)n2C)n1C(C)C,-4.48%
25,COCCCN1C(=O)S/C(=C/c2cc(C)n(-c3ccc4c(c3)OCO4)c2C)C1=O,4.03%
26,Cc1cccn2c(=O)c3cc(C(=O)NCCC(C)C)n(C)c3nc12,0.583%

row,SMILES,% Inhibition @ 10 uM
1,CCOC(=O)c1c(NC(=O)COc2ccccc2C)sc2c1CCC2,21.4%
2,CC(Oc1ccccc1)C(=O)Nc1ccc(NC(=O)C(C)Oc2ccccc2)cc1 (centres unmarked),4.31%
3,COc1ccc(S(=O)(=O)Nc2ccccc2C(=O)N2CCCC2)c(Cl)c1Cl,-0.519%
4,COc1nc(NC23CC4CC(CC(C4)C2)C3)nc(OC)n1,2.58%
5,Cc1ccc(OCC(=O)Nc2ccc(S(=O)(=O)N3CCCCCC3)cc2)c(Br)c1,-4.02%
6,O=C(CSc1ccccn1)Nc1ncc(Br)cc1Br,4.42%
7,N=C(NOC(=O)c1ccc(Br)o1)c1cccnc1,3.87%
8,COc1ccc(CCNC(=O)[C@@H]2C[C@H]2c2ccccc2)cc1OC,3.29%
9,Cc1ccc(CSc2nc(O)c3c(n2)NC(=O)CC3c2cccc(O)c2)cc1 (centres unmarked),6.89%
10,COc1ccc(-c2csc(/C(C#N)=C\Nc3ccc(C)cc3)n2)cc1,2.01%
11,CCN(CC)c1ccc(C2NC(=O)NC(O)(C(F)(F)F)C2C(=O)c2ccccc2)cc1 (centres unmarked),8.18%
12,Cc1nc(NC(=O)c2ccccc2Cl)ccc1Br,-2.67%
13,Cc1cccc(-n2cnc3cc(C(=O)NCCc4ccccc4)ccc32)c1,1.42%
14,CCOc1ccc(Br)cc1C(=O)N1CCCCC1,-3.83%
15,O=c1cc(CSc2nc(O)c3c(n2)CCC3)nc2ccccn12,-2.92%
16,COc1cc2c(cc1OC)C(COc1ccccc1OC)N(C(=O)COc1ccccc1)CC2 (centres unmarked),3.83%
17,COc1ccc(NC(=O)C(C)Oc2cccc(C)c2)c(OC)c1 (centres unmarked),0.931%
18,CCN(CC)C(=O)CSc1nc(-c2ccco2)cc(C(F)(F)F)c1C#N,0.722%
19,O=C(COc1ccc(Cl)cc1)N(C1CCCCC1)C1CCCCC1,4.54%
20,c1ccc2c(OCCCCN3CCCCC3)cccc2c1,0.135%
21,CC1CCC(NC(=O)c2nnc(Cc3c(F)cccc3Cl)o2)CC1 (centres unmarked),3.99%
22,O=C(Cn1ncc2c3ccccc3nc-2c1O)Nc1cc(-c2cccc(F)c2)no1,-4.51%
23,COc1ccc(/C=C/C(=O)NCCCN2CCC(N(C)C3CCCCCC3)CC2)cc1,0.689%
